Results as given in PubChem BioAssay AID504937 (National Center for Advancing Translational Sciences (NCATS), 2011).
About 20 (0.006%) of roughly 340,000 compounds were called active. Inconclusive means that the source gave no clear call. Such entries were picked first, then a sample of the others. Calls come from the whole dose curve; as a rule, active = well fitted inhibition curve with a large enough effect; inconclusive = small, poorly fitted or top-dose-only effect; inactive = no such curve, though single readings can be large or run the other way. A potency beside an inconclusive call is a rough fit, not a confirmed value.

Target: Sphingomyelin phosphodiesterase (Homo sapiens) (UniProt P17405)
Test: Inhibitors of Secretory Acid Sphingomyelinase (S-ASM): qHTS
Details: placental ASM, HMU-PC fluorogenic substrate (series up to 57.5 µM), 60 min; activity change, negative = inhibition: at the top concentration
In short: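 HMU-PC0 cleavage (9 uM final) by human placental ASM, 60 min at 37 °C following 10 min compound exposure at RT; stopped at pH 10, fluorescence Ex 386/Em 447 nm.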
Potency is the fitted concentration of half-maximal effect; tags give direction and shape of the fitted curve.

UniProt P17405, sequence (P17405 whole entry, looked up): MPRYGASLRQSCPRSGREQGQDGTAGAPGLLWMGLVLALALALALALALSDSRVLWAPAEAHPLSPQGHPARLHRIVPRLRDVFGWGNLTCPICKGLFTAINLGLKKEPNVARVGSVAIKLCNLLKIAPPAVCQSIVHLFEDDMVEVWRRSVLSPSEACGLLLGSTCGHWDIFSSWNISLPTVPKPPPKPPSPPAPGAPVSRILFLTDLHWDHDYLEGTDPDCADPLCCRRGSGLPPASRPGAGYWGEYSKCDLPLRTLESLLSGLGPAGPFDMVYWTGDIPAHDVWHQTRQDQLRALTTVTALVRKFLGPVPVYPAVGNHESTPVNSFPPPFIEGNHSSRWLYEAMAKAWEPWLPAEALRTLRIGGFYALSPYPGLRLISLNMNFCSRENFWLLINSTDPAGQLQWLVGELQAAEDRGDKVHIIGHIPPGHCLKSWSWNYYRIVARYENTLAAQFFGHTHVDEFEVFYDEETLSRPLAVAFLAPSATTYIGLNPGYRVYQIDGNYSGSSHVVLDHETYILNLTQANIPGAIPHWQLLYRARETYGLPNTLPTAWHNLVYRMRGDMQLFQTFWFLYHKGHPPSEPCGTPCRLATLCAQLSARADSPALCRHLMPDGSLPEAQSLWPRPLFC

Row | Compound | activity change, negative = inhibition | Potency
1 | Clc1cccc(-c2ccc3ncnc(NCc4cccs4)c3c2)c1 | inactive: -17.3% | –
2 | O=C(N[C@@H]1C/C=C\C[C@@H](CC(=O)N(CCO)Cc2ccccc2)C(=O)N[C@@H](c2ccccc2)COC1=O)OCC1c2ccccc2-c2ccccc21 | inactive: -2.77% | –
3 | Cc1cc(OC(F)F)ccc1NC(=O)Nc1ccc([N+](=O)[O-])cc1 | inactive: -7.92% | –
4 | COC(=O)C1=C(C)N(Cc2ccccc2)C(=NCCc2c[nH]c3ccccc23)N[C@H]1c1cccc(C(F)(F)F)c1 | – | inconclusive: 89.1 µM [inhibitor, single point]
5 | O=C1c2ccccc2-c2cccc(NS(=O)(=O)c3ccc(C(F)(F)F)cc3)c21 | – | inconclusive: 282 µM [inhibitor, partial curve, poor fit]
6 | Cc1nonc1C(=O)N/N=C/c1ccc(O)c(O)c1 | inactive: 3.76% | –
7 | CSc1nc(N)nc(SCC(=O)c2ccc(C)cc2)c1C#N | inactive: 5.78% | –
8 | O=S(=O)(Nc1nc2ccccc2nc1N1CCN(CCO)CC1)c1cc(F)ccc1F | inactive: 12.2% | –
9 | COc1ccc(Nc2nc(-c3cccs3)nc3ccccc23)cc1S(=O)(=O)N1CCOCC1 | inactive: -5.22% | –
10 | C=C1CCC[C@]2(C)C[C@H]3OC(=O)C(CN[C@@H](C)c4ccccc4)[C@H]3CC12 (stereo partly drawn) | inactive: -2.29% | –
11 | Cn1cc(/C=C2\SC(=S)N(NC(=O)c3cccc(Cl)c3)C2=O)c2ccccc21 | – | inconclusive: 316 µM [inhibitor, partial curve]
12 | O=C(c1ccc(CSc2nc3ccncc3[nH]2)cc1)N1CCCCCC1 | inactive: 1.84% | –
13 | O=C1NC2(O)C(=O)c3ccccc3C2(O)N1 (stereo not drawn) | inactive: 1.28% | –
14 | CCOC(=O)c1ccc(N2C(=O)CC(N3CCN(C/C=C/c4ccccc4)CC3)C2=O)cc1 (stereo not drawn) | inactive: -3.83% | –
15 | COc1ccc(-c2csc(NC(=O)c3ccc(S(C)(=O)=O)cc3)n2)cc1 | – | inconclusive: 56.2 µM [inhibitor, partial curve, poor fit]
16 | COc1ccc(/C=N/NC(=O)c2nn(-c3ccc(Cl)cc3)c(=O)c3c(N)scc23)cc1 | – | inconclusive: 398 µM [inhibitor, partial curve, poor fit]
17 | N#CCSc1nc2c(c(C3CC=CCC3)c1C#N)CCC2 (stereo not drawn) | – | inconclusive: 447 µM [inhibitor, partial curve, poor fit]
18 | Cc1ccc(C(C)C)c(OCC(=O)Nc2sc3c(c2C#N)CC(C)(C)NC3(C)C)c1 | – | inconclusive: 89.1 µM [inhibitor, single point]
19 | COc1cc(C2Nc3cc(Cl)c(S(N)(=O)=O)cc3S(=O)(=O)N2)ccc1OCc1ccccc1 (stereo not drawn) | – | inconclusive: 100 µM [inhibitor, single point]
20 | CC(C)(Cc1ccc(O)cc1)NC(=O)CC(=O)N=Nc1c(O)[nH]c2cc(Br)ccc12 | – | inconclusive: 89.1 µM [inhibitor, single point]
21 | Cc1ccccc1NC(=O)OCc1cccnc1Sc1ccc(Cl)cc1 | – | inconclusive: 200 µM [inhibitor, partial curve, poor fit]
22 | COc1ccc(Cn2c(C(C)C)nc3sc4ccccc4c(=O)c3c2=O)cc1 | – | inconclusive: 100 µM [inhibitor, partial curve, poor fit]
23 | NC(=O)c1ccsc1NC(=O)c1nc(-c2ccccc2)n(-c2ccccc2)n1 | – | inconclusive: 89.1 µM [inhibitor, single point]

Row | Compound | activity change, negative = inhibition | Potency
24 | CC1(C)CC(c2nc(-c3ccc(Cl)cc3)cs2)CCS1 (stereo not drawn) | – | inconclusive: 251 µM [inhibitor, partial curve, poor fit]
25 | O=C(O/N=C\c1ccc(N2CCCCC2)c([N+](=O)[O-])c1)c1ccc(Cl)cc1Cl | inactive: -4.56% | –
26 | CCCN(CCC)Cc1c(C(=O)N/N=C/c2ccsc2)nnn1-c1nonc1N | – | inconclusive: 89.1 µM [inhibitor, single point]
27 | CCOC(=O)c1c(-c2ccc(-c3ccccc3)cc2)csc1NC(=O)CNCCN(C)C | – | inconclusive: 63.1 µM [inhibitor, partial curve]
28 | Cc1cc([N+](=O)[O-])ccc1NCc1ccc2ccccc2c1 | – | inconclusive: 89.1 µM [inhibitor, partial curve]
29 | O=C(Nc1ccc(Oc2cccc(C(F)(F)F)c2)nc1)c1ccco1 | inactive: -0.288% | –
30 | O=C(CSc1ncn(-c2ccccc2)n1)Nc1nc2ccccc2s1 | – | inconclusive: 398 µM [inhibitor, partial curve, poor fit]
31 | Cc1cc(C(=O)NNC(=O)COc2c(C)cc(Br)cc2C)n[nH]1 | – | inconclusive: 79.4 µM [inhibitor, partial curve, poor fit]
32 | CCOC(=O)C1CCN(Cc2cc(=O)oc3cc(C)c(Cl)cc23)CC1 | inactive: -1.63% | –
33 | O=C(Nc1nccs1)c1ccc(CSc2nnnn2-c2ccccc2)cc1 | – | inconclusive: 112 µM [inhibitor, partial curve, poor fit]
34 | Cc1nn(-c2ccccc2)c(C)c1/C=N/NC(=O)c1cc(-c2ccc(Cl)s2)[nH]n1 | – | inconclusive: 89.1 µM [inhibitor, partial curve]
35 | O=C(NN1C(=O)/C(=C/c2cccc(O)c2)SC1=S)c1ccccc1O | – | inconclusive: 56.2 µM [inhibitor, partial curve, poor fit]
36 | CCC(SC1=NCCS1)C(=O)Nc1nnc(-c2ccccc2OC)s1 (stereo not drawn) | – | inconclusive: 1000 µM [inhibitor, partial curve, poor fit]
37 | O=C(OCCN1CCN(C2=NS(=O)(=O)c3ccccc32)CC1)c1cccc(Br)c1 | – | inconclusive: 501 µM [inhibitor, partial curve, poor fit]
38 | CCCn1c(N)c(C(=O)CSc2ncn[nH]2)c(=O)n(C)c1=O | inactive: -0.922% | –
39 | Cc1nc(-c2ccc(NC(=O)CC(C)C)cc2)cs1 | inactive: 0.531% | –
40 | CCN(CC)CCOC(=O)c1ccc(NC(=O)c2cn(-c3ccccc3)nc2-c2cccs2)cc1 | – | inconclusive: 79.4 µM [inhibitor, single point]
41 | O=C(NN=C1CCCC1)c1[nH]c2ccc(Cl)cc2c1-c1ccccc1 | – | inconclusive: 112 µM [inhibitor, partial curve, poor fit]
42 | O=C(Nc1ccc(Cl)cc1)N1CCN(c2ccc3nnc(-c4ccc(F)cc4)n3n2)CC1 | – | inconclusive: 70.8 µM [inhibitor, partial curve, poor fit]
43 | CSc1nsc2nc(=O)c(/C=C3\C(C)=Nc4ccc(C)cc43)c(N)n12 | – | inconclusive: 89.1 µM [inhibitor, single point]
44 | C/C1=C\CCC2C(/C=C(\C)CC1)OC(=O)C2CN1CCCCC1 (stereo not drawn) | inactive: -0.436% | –
45 | COc1cccc(NS(=O)(=O)c2cc3[nH]c(=O)c(=O)[nH]c3cc2C)c1 | inactive: -1.49% | –
46 | O=C(NCCc1ccccc1)C(=O)c1c(-c2ccccc2)[nH]c2ccccc12 | – | inconclusive: 56.2 µM [inhibitor, single point]

Row | Compound | activity change, negative = inhibition | Potency
47 | COc1ccc(CNC(=O)C[C@H]2C(=O)N(C3CCCCC3)C[C@@H]2Cc2ccccc2)cc1 | inactive: 1.19% | –
48 | Cc1ccc([N+](=O)[O-])c2c1C(N1CCCC1)C(C)(C)O2 (stereo not drawn) | inactive: 1.99% | –
49 | COCCCNC(=S)N1CCN(c2ccc([N+](=O)[O-])cc2)CC1 | inactive: -10.5% | –
50 | CC(C)(C)OC(=O)N[C@@H](Cc1ccccc1)c1nnc(SCC(=O)c2ccc(Cl)cc2)o1 | inactive: 0.445% | –
51 | COc1cccc(/C=N/Nc2ccc(S(=O)(=O)Nc3ccccc3C(=O)O)cc2[N+](=O)[O-])c1O | – | inconclusive: 100 µM [inhibitor, partial curve, poor fit]
52 | O=c1oc2ccccc2cc1-c1csc(NN=C2CCCC2)n1 | inactive: 6.72% | –
53 | Cc1ccc(-n2nc(C(=O)N3CCOCC3)cc2-c2ccc(Cl)cc2)cc1 | – | inconclusive: 100 µM [inhibitor, partial curve, poor fit]
54 | Cc1cc(C)cc(NC(=O)c2ccc(CN3CCc4ccccc4C3)cc2)c1 | inactive: 3.88% | –
55 | CCCCn1nnc(NC(=O)c2ccc(-c3cccc(Cl)c3)o2)n1 | inactive: -15.7% | –
56 | C/C=C/Cn1c(SCCCc2ccccc2)nc2c1c(=O)[nH]c(=O)n2C | – | inconclusive: 224 µM [inhibitor, partial curve, poor fit]
57 | CCNc1nc(NCC)nc(N/N=C/c2ccc(Br)cc2)n1 | – | inconclusive: 447 µM [inhibitor, partial curve, poor fit]
58 | CC(C)Cn1c(N)c(C(=O)COC(=O)c2c(O)c(Cl)cc(Cl)c2Cl)c(=O)n(C)c1=O | inactive: -20% | –
59 | O=C(NC1CCCCC1)C(c1ccc(O)cc1)N(CC1CCCO1)C(=O)C1COc2ccccc2O1 (stereo not drawn) | inactive: -2.73% | –
60 | COc1ccc(-c2nc(C#N)c(NCc3ccc(C)cc3)o2)cc1OC | – | inconclusive: 89.1 µM [inhibitor, partial curve, poor fit]
61 | O=C1NN=C(c2ccc(Cl)cc2)CC1c1cccc(Cl)c1 (stereo not drawn) | – | inconclusive: 89.1 µM [inhibitor, single point]
62 | Oc1c(Br)cc(Br)cc1C=Nc1ccc2[nH]ncc2c1 | – | inconclusive: 316 µM [inhibitor, partial curve, poor fit]
63 | COc1ccccc1OCCNC(=O)C(CCSC)NC(=O)c1ccccc1Cl (stereo not drawn) | inactive: 3.29% | –
64 | CC1=NN(c2ccc(Br)cc2)C(=O)/C1=C/c1cccs1 | – | inconclusive: 224 µM [inhibitor, partial curve, poor fit]
65 | Cc1cc2[nH]c(=O)c(=O)[nH]c2cc1S(=O)(=O)N1CCN(c2cccc(C)c2C)CC1 | – | inconclusive: 70.8 µM [inhibitor, single point]
66 | NC(N)=N/N=C/c1ccccc1 | inactive: -1.01% | –
67 | CCS(=O)(=O)N1CCC(C(=O)NCCc2ccc(C)cc2)CC1 | inactive: 0.251% | –
68 | COc1cc(C(=O)Nn2c(O)c(C3=c4ccccc4=NC3=O)sc2=S)ccc1O | – | inconclusive: 28.2 µM [inhibitor, partial curve, poor fit]
